# Hit rate of the full screen: of about 50,000 compounds, about 800 (1.6%) showed an effect of 50% or more. The list shows a part of the results.
# Target: Bcl-2-like protein 10 (Homo sapiens) (UniProt Q9HD36)
# Experiment: Phenotype converters, Bcl-B/TR3 peptide binding displacement, primary biochemical FP (AID 1240);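 further: 0% = Bcl-B with tracer peptide and DMSO and 100% = tracer peptide lacking Bcl-B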
# Settings: GST-Bcl-B / FITC-TR3 peptide fluorescence polarization; stronger effect = higher value; compound at 3.75 mg/L
# Sequence of UniProt Q9HD36 (Q9HD36 whole entry, looked up): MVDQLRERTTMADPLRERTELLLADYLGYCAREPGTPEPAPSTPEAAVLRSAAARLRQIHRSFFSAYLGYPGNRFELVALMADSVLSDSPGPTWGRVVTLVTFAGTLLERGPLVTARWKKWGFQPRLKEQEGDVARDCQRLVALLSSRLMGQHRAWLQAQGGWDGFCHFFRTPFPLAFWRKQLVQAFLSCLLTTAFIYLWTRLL
row,Structure (SMILES),displacement [%]
1,CCN(CC)S(=O)(=O)c1ccc(NC(=O)Nc2ccccc2)cc1,-3.3
2,COc1cc(/C=C2\C(=O)N(c3ccc(S(N)(=O)=O)cc3)N=C2C)cc(Br)c1O,10.5
3,O=C1NC(c2ccccc2)=C(c2ccc3ccccc3n2)C(c2cccc([N+](=O)[O-])c2)N1 (stereo not drawn),7.8
4,O=C(O)CCCC(=O)Nc1nc(-c2ccc(F)cc2)cs1,0
5,Cc1ccc(-c2nnc(NC(=O)c3ccccc3C)s2)cc1,3.9
6,O=C1c2cccc3cccc(c23)C(=O)N1/N=C/c1cccc([N+](=O)[O-])c1,11
7,CC(C)=C1C2C=CC1C1C(=O)N(c3cc(C(F)(F)F)ccc3Cl)C(=O)C21 (stereo not drawn),16
8,O=C(Cc1ccccc1)Nc1ccc(-c2nc3ccccc3[nH]2)cc1,-0.6
9,O=C(Nc1ccc2ccccc2c1)C1CC(=O)N(c2ccccc2)C1 (stereo not drawn),3.8
10,Cc1ccccc1OCC(=O)N/N=C\C=N\NC(=O)COc1ccccc1C,-2.5
11,O=C(Nc1ccccc1)c1c(NC(=S)Nc2ccccc2)sc2c1CCCC2,3.9
12,O=C(CSc1nc(O)c(C(c2ccccc2)c2ccccc2)c(=O)[nH]1)N1CCOCC1,11.6
13,O=C(CN(c1cccc(Br)c1)S(=O)(=O)c1ccccc1)NCCc1ccccc1,7.1
14,CC1(C)OC(=O)C(=C2CCCN2)C(=O)O1,-17.1
15,Cc1c(NC(=O)Nc2cccc(Cl)c2)c(=O)n(-c2ccccc2)n1C,1.2
16,C/C(=N/NC(=O)COc1ccc(C)cc1)c1ccc([N+](=O)[O-])cc1,1.6
17,O=C(Nc1cccc([N+](=O)[O-])c1)c1cccc(F)c1,-8.1
18,Cc1cc(NC(=O)c2ccc(Cl)cc2)n(-c2ccccc2)n1,-5.6
19,COc1cccc(OC)c1C(=O)NNC(=O)c1ccc(F)cc1,-5.1
20,COc1ccccc1OCCCCCCN1CCCC1,11.1
21,COc1cc(NC(=O)c2cccc(Cl)c2)ccc1NC(=O)c1ccco1,8.1
22,CCCCSc1nc2sc3c(c2c(=O)n1-c1ccc(OC)cc1)CC(C)(C)OC3,-8.3
23,O=C(Nc1ccccc1O)c1ccc(C(=O)c2ccccc2)o1,-8.1
24,CCCCCC(=O)N1c2ccccc2NC2=C(C(=O)CC(c3ccc(OC)cc3)C2)C1c1ccco1 (stereo not drawn),-3.9
25,COc1ccc(-c2cc(C(F)(F)F)n3nc(C(N)=O)c(Cl)c3n2)cc1OC,33.4
26,CC(C)(C)c1ccc(C(c2ccccc2)C2([N+](=O)[O-])C(=O)c3ccccc3C2=O)cc1 (stereo not drawn),-8.6
27,O=C(CP(=O)(c1ccccc1)c1ccccc1)c1ccccc1,14.4

row,Structure (SMILES),displacement [%]
1,CCCN(CCC)C(=O)c1cccc([N+](=O)[O-])c1C,4.8
2,COCCCNC(=O)CN(c1ccc(C)cc1)S(C)(=O)=O,-1.5
3,Cc1onc(-c2ccccc2)c1C(=O)Nc1cccc(Cl)c1,-2.5
4,Oc1c(/C=N/Nc2nc3ccccc3s2)sc2ccccc12,-8.6
5,C=CCN1C(=O)/C(=C\c2ccc(OCc3ccc(Br)cc3)c(OC)c2)SC1=S,-11.3
6,O=C(Nc1ccc(Cl)c(Cl)c1)Nc1nnc(-c2ccc([N+](=O)[O-])cc2)s1,14.3
7,Cc1ccc(-n2ncnc2-c2ccc(Cl)cc2)cc1Cl,-10.1
8,COc1ccc(OCC(=O)N2c3ccccc3Sc3ccc(Cl)cc32)cc1,2.5
9,Cc1ccc(N2CC(C(=O)Nc3c(C)cc(C)cc3C)CC2=O)cc1 (stereo not drawn),5.3
10,CCOC(=O)N1CCN(C(=O)c2ccc(C#Cc3ccccc3)cc2)CC1,0.4
11,Cc1ccc(NC(=O)c2c(C(=O)O)cccc2[N+](=O)[O-])c(Br)c1,15.4
12,COc1ccc(C2/C(=C(/O)c3ccccc3)C(=O)C(=O)N2Cc2ccccc2)c(OC)c1 (stereo not drawn),-18.5
13,O=C(CN1C(=O)c2cccc([N+](=O)[O-])c2C1=O)Nc1nc(-c2ccccc2)cs1,-0.3
14,N#Cc1c(NC(=O)CN2C(=O)c3cccc4cccc(c34)C2=O)sc2c1CCCC2,-6.7
15,CCOc1ccc(NC(=O)c2c(NC(=O)C(C)(C)C)sc3c2CCC3)cc1,-9.5
16,Cc1cc(=O)oc2cc3occ(-c4ccccc4)c3cc12,-1
17,COc1cc(OC)cc(-c2nc3ccc(C)cc3c(=O)o2)c1,-17.8
18,COc1ccc(C2CC(C(F)(F)F)n3nc(C(=O)Nc4ccc5c(c4)OCO5)cc3N2)cc1 (stereo not drawn),5.6
19,COc1cc(C(=O)NCc2ccc(F)cc2)cc(OC)c1OC,-7.6
20,Cc1ccc(Cl)cc1NC(=O)C1CCCCC1C(=O)O (stereo not drawn),7
21,COC(=O)CCCC[C@H]1SC[C@H]2NC(=O)NC21O (stereo partly drawn),6.6
22,CCOc1ccccc1NC(=O)c1ccc([N+](=O)[O-])cc1,11
23,O=C(Nc1cc(C(F)(F)F)ccc1N1CCOCC1)c1ccc(Cl)c([N+](=O)[O-])c1,-3.7
24,CCOc1cc(/C=C2\C(=O)NN(c3ccccc3)C2=O)cc(Cl)c1O,-161
25,CC1CC(O)N(C(=O)c2ccccc2O)N1C (stereo not drawn),9.3
26,Fc1cccc(Cl)c1-c1nnc2ccc3ccccc3n12,7.1
